The list shows a part of the results.

In the assay the test system is PfAP2-HC AP2 domain (GST-tagged). The experiment in a line: gcPBM binding intensity (ln(normalized median fluorescence intensity)); higher = stronger DNA binding. The method in brief: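 Plasmodium falciparum DNA-binding domains carrying a GST tag were expressed in E. coli and applied for 1 h, at about 25 μg on average, to an Agilent 4 × 180k array. The array held primer-extended double-stranded 36-bp intergenic genomic probes together with negative controls, and binding took place in 1× PBS with 1% milk, 0.2 mg/ml BSA, 0.5% salmon testes DNA and 0.03% Triton X-100. An Alexa488 anti-GST antibody detected bound protein, and the array was scanned at 488 nm. Binding intensity is taken as the highest Masliner-normalised natural-log median intensity across replicate spots of either probe orientation.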
Consider “ATATATTATTTCTAGTGTACATACCCATATATAATA [XGTACX_site8902]”, for which the “gcPBM binding intensity (ln)” value came to 9.63.

Consider “TAGATAAACAAGAAATGTACAAACGTAAATATGTTC [XGTACX_site2373]”, for which the “gcPBM binding intensity (ln)” value was 9.83.

Regarding “TAAAAAATAAATATATGTACATATTTATTTTTTTTT [XGTACX_site850]”, the “gcPBM binding intensity (ln)” value turned out to be 9.46. As for “ATATTTTTTTTTTCGTGTACGCATAAATATATCTAA [XGTACX_site3360]”, the “gcPBM binding intensity (ln)” value came out at 9.61.

For the sequence “ATTGAATTCCAACTGGTGCACCAGTAAGATTGAAAA [GTGCAC_site9895]”, the “gcPBM binding intensity (ln)” value was determined as 9.61. In the case of “AAATTCATAAAAATATTTTATAATTATATATAGAAT [TGCATGCA_negctrl_site343]”, the “gcPBM binding intensity (ln)” value stood at 9.5. Then “GGGTTTTTTATTAATACATGCATGGAAACGCACTAT [TGCATGCA_site1000]”, with 9.69.

For “ATATATATATAATTTGTACACACAAATATGCATATA [CACACA_site9136]”, the “gcPBM binding intensity (ln)” value came out at 9.83. Consider “AAGAAAAACAATGAGATAAAGAAGAGAAAATATGTC [TGCATGCA_negctrl_site415]”, for which the “gcPBM binding intensity (ln)” value stood at 10.1. With “ATAAATATGTAAAAAACATGCAAAAAATTAAAGACA [TGCATGCA_site912]”, the “gcPBM binding intensity (ln)” value was 10.2. With “TCATAGTAGAAACACACACACACACCCATATATATA [CACACA_site1737]”, the “gcPBM binding intensity (ln)” value came to 11.3. Turning to “GGAAACAAAAAATATATACACACTAAACATAAAAAA [CACACA_site20]”, the “gcPBM binding intensity (ln)” value was 10.1. Then “AACGCACATATATTTATGTATATATATATATATATA [GTGCAC_negctrl_site478]”, with 9.74; and “GTTATTAAACAGAAAAGTACATATGTATATTAAAAT [XGTACX_site3724]”, with 9.86; and “TTATTAAATAAAATCATGCACACAATATATATTTTA [CACACA_site2496]”, with 9.7. Then “TTATTACATAACAATATACACACTATTGATTAAAGA [CACACA_site2933]”, with 9.57; and “TAAAAAAAAAGAAGCTGTACTAAAAAATTTATATTA [XGTACX_site7408]”, with 9.38; and “AATACTAAAAAGTGTACACATACATAAAAAATTGCA [CACACA_site5620]”, with 9.92. As for “AAGAAAAAAGTTATTAGTACACATTATAATAAAAAG [XGTACX_site3527]”, the “gcPBM binding intensity (ln)” value worked out at 9.74. Turning to “TATTGATTTATAAACACACACTCGAAGATGTTTAAC [CACACA_site4760]”, the “gcPBM binding intensity (ln)” value stood at 9.71.

Consider “TATATCTCATAGTATACACACACACCCACCCACATA [CACACA_site8513]”, for which the “gcPBM binding intensity (ln)” value stood at 10.3. Then “TATATATATGTAAATCGTACAAATTATATATATCAT [XGTACX_site2821]”, with 9.6; and “TAATTTTCTTTTTATCGTTTTTTTTTTTTTTTTTTT [XGTACX_negctrl_site432]”, with 9.4. For “CATTATGTTGTAAATACACACATACATATACATACA [CACACA_site8143]”, the “gcPBM binding intensity (ln)” value is 9.87. For “AGTGGAATGTATGATTTTCATTCCTTAAAATTTTAA [GTGCAC_negctrl_site521]”, the “gcPBM binding intensity (ln)” value came to 9.49. Then “CATATATAACAATTCTCACACATAAAAAAAAAAAAT [CACACA_site4564]”, with 9.76.

In the case of “AAAATAAAATATTTCTGTACTTATAACTATTCTATA [XGTACX_site8007]”, the “gcPBM binding intensity (ln)” value was found to be 9.6. Regarding “ATAAAATGATAAATTTGTACACAAAAAAAAAAAAAA [XGTACX_site964]”, the “gcPBM binding intensity (ln)” value was 9.62.

Regarding “GGGTATACAAATAAACGTACAAACTCATAAAAAAAA [XGTACX_site3191]”, the “gcPBM binding intensity (ln)” value stood at 9.79. In the case of “TCTTTTTAAACTAATAGTACATATATATTAATAAAT [XGTACX_site4217]”, the “gcPBM binding intensity (ln)” value worked out at 9.41. For “ATTTACATAAATTGCATATATCGATGTAAATAAATA [CACACA_negctrl_site1150]”, the “gcPBM binding intensity (ln)” value was determined as 9.5. The result for “ATATATATATATATATGTACATATATTTATTTATTG [XGTACX_site6267]” reads 9.65; that for “CATTTATTTTTGTTCTGTACATAAAGATGAACAAAA [XGTACX_site6797]”, 9.29; that for “TTAAAAAAATATAATACACACCAAAAATATGCACAT [CACACA_site5209]”, 10.3. For “TTTTTATGGTAAATAAAAATATCTCCCTCCTTAATT [CACACA_negctrl_site1352]”, the “gcPBM binding intensity (ln)” value was determined as 9.55.

Turning to TAATAATTTATAATAGTGCATTTGATTTTAAAAATA, the “gcPBM binding intensity (ln)” value was 9.24. Then “CATATAAAAATGTGCACACACACACCCATATATATT [CACACA_site1526]”, with 10.9; and “AAAATTAATAAATAAACACACATATATATATATATA [CACACA_site2598]”, with 9.93; and “TTGATTACACTGAAGTGTACATATATATATATATAT [XGTACX_site3532]”, with 9.95. Turning to “AATATCCACATTAGGAGTACACAGCTAACTGTTTGA [XGTACX_site3357]”, the “gcPBM binding intensity (ln)” value was determined as 9.51. “TTTTATATAAAATCGTGTACATACCATTTCCTATTA [XGTACX_site5159]”: the “gcPBM binding intensity (ln)” value is 9.67. Then “AAAAAAAAAAGAAACACACACATTTGTATATAATAT [CACACA_site2078]”, with 10.7.

For the sequence “AAATAATAAAAAAAATGTACACGTAAATATTATATT [XGTACX_site8125]”, the “gcPBM binding intensity (ln)” value turned out to be 9.84. The result for “AGAGTTCTCATATGCACACAAAAAACTTTCATTTAT [CACACA_site45]” reads 9.76; that for “TATTTTTTTCTTACATACTAATTTGGTACTCACATA [TGCATGCA_negctrl_site81]”, 9.72; that for “AAATAAATCTTATGCACACAAATAATTAATTAAACA [CACACA_site1693]”, 9.82. Then “AACCCCGTGGAAATATGTACATATAAATATATAAAT [XGTACX_site2094]”, with 9.66; and “TAAATAAGCACATACACACATACATACATACATAAA [CACACA_site4017]”, with 10.1. Take “TTTTTGCCATATTACACACACACATGTAAACCCCCT [CACACA_site1647]”: the “gcPBM binding intensity (ln)” value was found to be 10.1. Take “GTGAAATATGCAAACACACACGAGAAAAATGTATAT [CACACA_site7488]”: the “gcPBM binding intensity (ln)” value was determined as 10. Then “CAAAACAAAACGTATGCACACAATTAATATATTAAA [CACACA_site3405]”, with 9.94. With “CCATATAAAATATAAAAACACACGTATATATACATA [CACACA_site1511]”, the “gcPBM binding intensity (ln)” value is 9.78.

Turning to “ACAAAATGTAGAAAATGTACAAAATTAACAAAAGAA [XGTACX_site5019]”, the “gcPBM binding intensity (ln)” value was 9.99. Then “ATTCAATCTTTTAATACACACAATTTATTTCAAAAC [CACACA_site835]”, with 9.64. The result for “TGTACATATATATAGATATATATAGATATATATATA [CACACA_negctrl_site1678]” reads 9.72; that for “TATCCTAACTTTAGATGTACACAAATAAAAAAAAAA [XGTACX_site4491]”, 9.32; that for “AAAATACAAACAAGTGGTACTGTTTATAAATGGTTG [XGTACX_site1503]”, 9.85.

For the sequence “TTGTATATATTTATATGTACATATATTACTTTTGCT [XGTACX_site2449]”, the “gcPBM binding intensity (ln)” value was determined as 9.83. With “TGTCTTGTAAATTATTGTACTATTTAAAGTATACAA [XGTACX_site7864]”, the “gcPBM binding intensity (ln)” value came to 9.54.

Take “TTTTAAAAAGATCATTAAAAAAAAAAAAAGAACAAA [CACACA_negctrl_site528]”: the “gcPBM binding intensity (ln)” value amounted to 9.31.

On to “ATAATATAACAATACGCACACGTATACAAAAAAAAA [CACACA_site5703]”, for which the “gcPBM binding intensity (ln)” value turned out to be 9.99. Regarding “AATAATAAAGATCAATGTACATAATAAAAAAAAAAA [XGTACX_site2692]”, the “gcPBM binding intensity (ln)” value was 9.83.

As to “TATCATGGGTGTATTTCACACACGGATAATCATTTA [CACACA_site8211]”, the “gcPBM binding intensity (ln)” value amounted to 9.83. The result for “AATGTTTATTAACATTGTACTTATAATATGTCACAA [XGTACX_site2974]” reads 9.48; that for “AAACAACATATATTAATATGTACATATATATAGATA [GTGCAC_negctrl_site229]”, 9.8. Take “TTTTTTTTTTTTGTAACACACAATAATATAACATTA [CACACA_site3411]”: the “gcPBM binding intensity (ln)” value is 9.68. Turning to “TTTTTATTGTTATAGTTATAATATATTATTTGATTA [XGTACX_negctrl_site27]”, the “gcPBM binding intensity (ln)” value is 9.73. The result for “AATAATTGTTAAAGCTGTACAATACTTATATAAGAA [XGTACX_site5729]” reads 9.71.

With “TTATTAAGTAAATCACATTTAATTTTTTTTTTTTTT [CACACA_negctrl_site1280]”, the “gcPBM binding intensity (ln)” value amounted to 9.27. For the sequence “CACATATAAATATTAACACACATAATGAGTTATATA [CACACA_site7316]”, the “gcPBM binding intensity (ln)” value was found to be 9.71. For “TTATACCATATTTATAGTACGTACAAATAAATCAAT [XGTACX_site4975]”, the “gcPBM binding intensity (ln)” value stood at 9.59.

As for “AAGAAAAAAAAAAAAAGTACATGCAATATGGATCTT [XGTACX_site3106]”, the “gcPBM binding intensity (ln)” value was 9.75. Regarding “AATATGACGTAGTGGTGTACACACATGGTACCTTTA [XGTACX_site3147]”, the “gcPBM binding intensity (ln)” value amounted to 10.1.

As to “AAAAGATAATTATGCACACACACACCCCCACCCAAC [CACACA_site2570]”, the “gcPBM binding intensity (ln)” value came out at 10.9. With “TTATAAATATAATTTTGTACATATATATATATATAC [XGTACX_site5064]”, the “gcPBM binding intensity (ln)” value was found to be 9.54. Then “TTAGAACTATTTTATACATGCAGTTATTTAATACTT [TGCATGCA_site1039]”, with 9.61. Then “AATGGAAATTTTTCTTGTACACATATATGACATGTT [XGTACX_site1691]”, with 9.65; and “TTTTTTTTTACTGCATGTACTTGATGTAAATAAATT [XGTACX_site3045]”, with 9.65. As for “ATATATTTTCCTTCAAGTACACATATAAATGTGTAT [XGTACX_site6633]”, the “gcPBM binding intensity (ln)” value came out at 9.71.

In the case of “ATTAAAATATAAGTCACACATATATATATATATATA [CACACA_site6145]”, the “gcPBM binding intensity (ln)” value was 9.51. As to “TATTTTTTTTTATTTTTTTTTATTTTGTTTTTTTAT [TGCATGCA_negctrl_site315]”, the “gcPBM binding intensity (ln)” value was 9.44. Then “AAAAAAATAATCATCACACACGGAGAATGTCCAATA [CACACA_site5305]”, with 10.1; and “ACATATATTTTTTTTTGTACATATAAATATATATAT [XGTACX_site6491]”, with 9.7; and “AACGTAAAACATATCTATCAAAATAAATCATTAATC [TGCATGCA_negctrl_site68]”, with 9.96. The result for “AATATAATAATATTTTGTACATATCCTATGTATGAG [XGTACX_site8601]” reads 9.66; that for ACAACAATTCACTTGATGCACTAACCAAAAAAATAA, 9.59; that for “CACGCACGCAGACACACACACACACGCACATATATA [CACACA_site6303]”, 10.6. Then “ACATATAAAATGATGCGTACATATTTGATCATATAC [XGTACX_site153]”, with 9.72.

For the origin of these results see the supplement of paper PMC11417369.
